# Results reported in the supplement of paper PMC10338343.
# ± gives the standard deviation. The list shows a part of the results, in another mix than the full data.
# Tested on: MIWI (PIWIL1) piRISC loaded with piRNA #1 (30 nt)
# Test: pre-steady-state target cleavage rate (min^-1); MIWI and MILI are mouse PIWI proteins and EfPiwi is from a freshwater sponge; tags in brackets are library labels; higher = faster piRNA-guided slicing of the target
# Conditions: guide: piRNA #1 5'p-UGAGGUAGUAGGUUGUAUAGUAUCCAGAGG; auxiliary factor: 500 nM mouse GTSF1
# Method in brief: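 Cleave-'n-Seq used a transcribed, DNA-blocked target RNA library at 0.1 nM and active affinity-purified piRISC with one synthetic guide at 1 nM, with or without 500 nM GTSF1 partner protein, in HEPES–potassium acetate buffer at 33 °C for 0–8 or 0–960 min. Uncleaved targets were sequenced and normalised to depth and to weakly complementary targets, and three trials were pooled with k3 capped at 0.0001 min^-1. The pre-steady-state cleavage rate was estimated by a burst-and-steady-state fit.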
row,Sequence,pre-steady-state target cleavage rate
1,GGAGUCGUUACUAUACAACCUACUACCUCA,1.18 ± 0.088
2,GGACUGCAUACUAUACAAGCUACUACCUCA,0.938 ± 0.066
3,GCUCUGGAUACUAUACAACCUAGAACCUCA,0.252 ± 0.038
4,CCUCUGGAUACUAUACAAGCUACUUCCUCA,0.599 ± 0.043
5,GGAGAGGAUACUAUACAACGCUACUACCUCA,< 0.0001
6,GGAGUGGAUACUAUGACAACCUACUACCUCA,1.48 ± 0.12
7,GGAGAGGAUACUAUACAAGCUACUACCUGA,0.421 ± 0.032
8,GGAGACCUAUCUAUACAUCCUACUACCACA,0.249 ± 0.029
9,GGAGACGAUAGAAUACAACCUACUACCUCA,0.216 ± 0.032
10,GGUCUGGAUACCUAUACAACCUACUACCUCA,1.41 ± 0.1
11,GGAGAGGAUACUAUACUACCUACUACCUGA,0.412 ± 0.044
12,GCUCAGGAUACUAUACAACCUUCUACCUCA,0.616 ± 0.038
13,GGAGACCAUACUAUACAACCUACAACCACA,0.348 ± 0.034
14,GGAGAGGAUAGUAUACAACCUUCUACCUCA,0.221 ± 0.018
15,GGUCUGGAUACUAUACAUCCUACUUCCUCA,0.246 ± 0.03
16,GGAGACCUAUGUAUUCAACCUACUACGUCA,0.00199 ± 0.002
17,GGAGACCUAACUAUACAUGCUACUACCUCA,0.119 ± 0.021
18,GGAGACGAUACUAUACAAACCUACUACCUCA,0.00307 ± 0.0031
19,GGAGACCUAUGUUACAACCUACUACCUCA,0.0172 ± 0.0071
20,GGAGACCUAUGAUAUCAACCUACAACCACA,< 0.0001
21,GGUGUGGAUACUAUAGAACCUACUACCUCA,1.35 ± 0.084
22,GGAGAGGAUAGUAUACAAGCUACUACCUCA,0.00713 ± 0.0029
23,GGAGACCUAUGAUUACAAGCUACUACGUCA,0.00427 ± 0.0034
24,GGAGACCAUACUAUACAACCUACUAUCUCA,1.65 ± 0.15

row,Sequence,pre-steady-state target cleavage rate
1,GGACUAGGAUACUAUACAACCUACUACCUCA,1.83 ± 0.12
2,GCUCUGGAUACUAUACAACCUACUAGCCUCA,1.17 ± 0.061
3,GGAGACCUAUCUAUACAACCUAUCUACCUCA,0.0103 ± 0.0025
4,GGAGACCUAACUAUACAACCUACUACGAGA,0.305 ± 0.087
5,GGUCUGGAUAGUAUACAACCUAGUACCUCA,0.443 ± 0.043
6,GGAGACCUAUGUAUACUACCUACUACCUCA,0.00454 ± 0.0015
7,GGAGUGGAUAGUAUACAAGCUACUACCUCA,0.252 ± 0.026
8,GGAGUGGAUACUAUACAACCUACUACCUCC [g2:g26:cont:t1C],1.21 ± 0.065
9,GGUCUGCAUACUAUACAACCAACUACCUCA,0.133 ± 0.012
10,GCUCUGGAUAGUAUUCAACCUACUACCUCA,0.849 ± 0.044
11,GGAGACCAUACAAUACAACCAACUACCUCA,0.0235 ± 0.0072
12,CGUCAGGAUACUAUACAACCUACUACCUCA,1.76 ± 0.12
13,GGAGACCUAUCUAUACAACCAACUUCCUCA,0.00405 ± 0.003
14,GGAGACCUAACUAUACAAACCUACUACCUCA,< 0.0001
15,GGAGAGGAUACUAUACAACCUACUACCGUCA,0.0741 ± 0.011
16,GGUCUGGGAUACUAUACAACCUACUACCUCA,1.88 ± 0.1
17,GGACUGGAUACUUUACAACCUACUACCUGA,0.287 ± 0.069
18,GGAGUGGUAUACUAUACAACCUACUACCUCA,1.27 ± 0.051
19,GGACUGGAUACUAAACAACCUACUUCCUCA,0.0147 ± 0.0032
20,CCUCAGGAUACUAAACAACCUACUACCUCA,2.07 ± 0.12
21,CCUGUGGAUACUAUUCAACCUACUACCUCA,1.81 ± 0.1
22,GGACUGGAAACUAUUCAACCUACUACCUCA,1.24 ± 0.1
23,GCUCUGGAUUCUAUACAACCUACUAGCUCA,0.665 ± 0.068
24,GGACUCGAUACUAUUCAACCUACUACCUCA,1.54 ± 0.1

row,Sequence,pre-steady-state target cleavage rate
1,GGAGACCUAUCUAUAGAACCUACUUCCUCA,0.0185 ± 0.0046
2,GGAGACCUAAGUAUACAUCCUACUACCUCA,0.0391 ± 0.0087
3,GGAGAGGAUACUAUACAACCUACUACCACA,1.03 ± 0.067
4,GCUCUGGAUACUAUAGAACCUACUACCACA,0.205 ± 0.026
5,GGAGACCUAACUAUACAACCUACUACCGCA,1.04 ± 0.078
6,GGAGACCUUACUUAUACAACCUACUACCUCA,0.724 ± 0.066
7,GGAGUGGAUACUUUACAACCUACUACCUGA,0.297 ± 0.05
8,GGACUGGAUACUAAACAACCAACUACCUCA,0.087 ± 0.0098
9,GGACUGGAUACUAUAGAACCUUCUACCUCA,0.0567 ± 0.011
10,GGUCUGGAUACUAUACAGCCUACUACCUCA,0.726 ± 0.032
11,CCUCUGGAUACUAUACAUCCUUCUACCUCA,0.332 ± 0.026
12,GCUCUGGAUACUAUACAACCUACUCACCUCA,1.05 ± 0.098
13,CCUCUCGAUAGUAUACAACCUACUACCUCA,1.4 ± 0.078
14,GCUCUGGAUACAAUACAACCUACUACGUCA,1.19 ± 0.07
15,GGAGACCUAUCUAUACAACCUACUACCUCCA,0.741 ± 0.052
16,GGAGACGAUACUAUACAACCUACAACCUCA,0.766 ± 0.06
17,GGACUGGAUACUAUACAACGUAGUACCUCA,0.256 ± 0.067
18,GGAGACCUAUGUAUACAACCUACUACCAGA,0.00496 ± 0.0018
19,CCUCUGGAUAGCUAUACAACCUACUACCUCA,0.546 ± 0.032
20,GGAGACCAUACUAUACAGCCUACUACCUCA,0.595 ± 0.03
21,GGAGACCUAACUAUCAACCUACUACCUCA,0.0875 ± 0.012
22,GGAGACGAUACUAUUCAACCUACAACCUCA,0.509 ± 0.048
23,GGAGACGAUACUAUACAACCUACUAACUCA,0.469 ± 0.048
24,GGAGACCAUACAAUUCAACCUACUACCUCA,0.0717 ± 0.013

row,Sequence,pre-steady-state target cleavage rate
1,GGAGACCUAUGAAUACAACCUACUACCUCU [g2:g18:cont:t1U],0.00362 ± 0.0034
2,GGUCUGGAUACUAUACAACCUACUGACCUCA,0.364 ± 0.041
3,GCUCUGGUUACAAUACAACCUACUACCUCA,1.98 ± 0.12
4,GGAGACCUAUGAUAACAACCUAGUACCUGA,< 0.0001
5,GGAGUGGAUACUAUAACAACCUACUACCUCA,1.45 ± 0.12
6,GGAGACCAUAGUUUACAACCUACUACCUCA,0.186 ± 0.039
7,GGUCUGGAUACUAUACAAGCUACUACCUGA,0.701 ± 0.051
8,GGAGACCUAUGAUAUGUACCUCUACCUCA,< 0.0001
9,CCUCUGUGAUACUAUACAACCUACUACCUCA,1.82 ± 0.092
10,GGAGACCUAUGAUAACUAGCUACUACCUCA,< 0.0001
11,GGAGACCUAUCUAUACAACCUACUACCUGA,0.516 ± 0.057
12,GGUCUGGAUACUUUACUACCUACUACCUCA,1.09 ± 0.091
13,GGACUGGAUAGUAUACAACCUACAACCUCA,0.383 ± 0.041
14,GGAGACCUUACUAUACAACCCACUACCUCA,0.559 ± 0.029
15,GGAGACGAUUACUAUACAACCUACUACCUCA,1.68 ± 0.14
16,GGAGAGGAUACUAUACAAGCUUCUACCUCA,0.118 ± 0.012
17,GGUCUGGAUACUAUACAACCUACUACCUGA,0.699 ± 0.12
18,GGAGUGGAAACUAUACAACCUACUACCACA,0.509 ± 0.045
19,GGAGACCUAUGUAUACAACCUACUACCUAA,0.0981 ± 0.013
20,GGUUCUGGAUACUAUACAACCUACUACCUCA,1.9 ± 0.088
21,GGAGAGGAUACAUAACAACCUACUACCUCA,0.7 ± 0.065
22,GCUCUGGAUUCUAUACAUCCUACUACCUCA,1.31 ± 0.082
23,GCUCUGGAUACAUACAACCUACUACCUCA,1.28 ± 0.094
24,GGAGACCAUACUAUUACAACCUACUACCUCA,1.19 ± 0.1
